{"source": "paper PMC4336329", "about": "(PLoS ONE, 2015)", "note": "Hit rate of the full screen: of about 310,000 compounds, about 14,000 (4.5%) showed an effect of 50% or more. The effect is printed as a negative number. This is one part of the list.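 Also: peak tail current of the secondary pulse compared with the same well before compound.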"}
{"target": "human ether-à-go-go-related gene (hERG) potassium channel (human, UniProt Q12809)", "sequence (Q12809 whole entry, looked up)": "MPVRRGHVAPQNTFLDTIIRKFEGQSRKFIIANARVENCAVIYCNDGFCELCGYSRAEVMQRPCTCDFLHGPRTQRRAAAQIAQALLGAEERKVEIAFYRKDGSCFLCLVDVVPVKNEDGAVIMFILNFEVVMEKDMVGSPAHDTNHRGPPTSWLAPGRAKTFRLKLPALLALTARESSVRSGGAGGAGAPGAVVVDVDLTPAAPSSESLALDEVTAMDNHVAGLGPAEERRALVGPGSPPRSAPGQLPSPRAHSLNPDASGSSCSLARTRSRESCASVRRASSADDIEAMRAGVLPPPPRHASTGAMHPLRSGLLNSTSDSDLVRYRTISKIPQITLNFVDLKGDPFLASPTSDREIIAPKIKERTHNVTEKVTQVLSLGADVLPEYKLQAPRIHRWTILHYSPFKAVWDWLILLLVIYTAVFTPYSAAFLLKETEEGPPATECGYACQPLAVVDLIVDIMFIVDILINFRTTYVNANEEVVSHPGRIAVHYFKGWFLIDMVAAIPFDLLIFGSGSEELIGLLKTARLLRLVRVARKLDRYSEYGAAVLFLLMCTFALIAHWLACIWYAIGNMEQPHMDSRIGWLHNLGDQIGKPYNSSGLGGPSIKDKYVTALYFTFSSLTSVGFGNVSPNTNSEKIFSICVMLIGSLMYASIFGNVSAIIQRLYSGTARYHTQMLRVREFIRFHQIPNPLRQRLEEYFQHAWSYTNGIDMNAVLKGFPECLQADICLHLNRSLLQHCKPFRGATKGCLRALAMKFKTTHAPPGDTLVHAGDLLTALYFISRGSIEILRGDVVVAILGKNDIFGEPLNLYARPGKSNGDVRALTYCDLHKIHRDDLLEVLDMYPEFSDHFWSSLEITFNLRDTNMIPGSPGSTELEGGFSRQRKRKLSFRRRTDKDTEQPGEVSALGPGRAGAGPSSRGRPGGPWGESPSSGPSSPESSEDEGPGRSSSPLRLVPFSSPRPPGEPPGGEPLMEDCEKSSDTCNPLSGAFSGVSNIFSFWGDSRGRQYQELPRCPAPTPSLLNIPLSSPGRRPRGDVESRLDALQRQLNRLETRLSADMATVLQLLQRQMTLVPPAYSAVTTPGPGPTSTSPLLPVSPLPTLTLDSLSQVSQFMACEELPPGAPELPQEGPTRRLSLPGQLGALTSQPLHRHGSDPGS", "assay": "primary screen, population patch clamp on CHO cells stably expressing hERG", "units": {"hERG current change (%, negative = inhibition) at 10uM": "%"}}
{"smiles": "CCOC(=O)c1[nH]c(C)c(/C(O)=C2\\C(=O)C(=O)N(CCN(C)C)C2c2cccc(OC)c2OC)c1C", "note": "(stereo not shown)", "hERG current change (%, negative = inhibition) at 10uM": 18}
{"smiles": "O=C(O)c1ccc(Cl)c(S(=O)(=O)NCc2cccnc2)c1", "hERG current change (%, negative = inhibition) at 10uM": 11}
{"smiles": "CS(=O)(=O)Nc1ccccc1C(=O)OCC(=O)N1CCC(c2ccccc2)=N1", "hERG current change (%, negative = inhibition) at 10uM": -18.1}
{"smiles": "CSc1ccccc1-c1nnc(-c2ccc(Cl)cc2)o1", "hERG current change (%, negative = inhibition) at 10uM": -2.93}
{"smiles": "COc1ccc(/C=N/Nc2ncnc3c2[nH]c2ccccc23)c(OC)c1OC", "hERG current change (%, negative = inhibition) at 10uM": -5.02}
{"smiles": "COc1ccc(S(=O)(=O)N/N=c2\\oc3c(OC)cccc3cc2S(=O)(=O)c2ccc(C)cc2)cc1OC", "hERG current change (%, negative = inhibition) at 10uM": 13.2}
{"smiles": "COCCN(CC(=O)NC1CCCCC1)C(=O)CSc1nc2ccccc2o1", "hERG current change (%, negative = inhibition) at 10uM": 1.81}
{"smiles": "COc1cccc(N2CCN(CC(=O)NC(=O)NCc3ccco3)CC2)c1", "hERG current change (%, negative = inhibition) at 10uM": 10.2}
{"smiles": "Cc1ccc(C2CC(c3cccs3)=NN2C(=O)CSC2=NN3CCCC(=O)N=C3S2)cc1", "note": "(stereo not shown)", "hERG current change (%, negative = inhibition) at 10uM": -24.2}
{"smiles": "Cc1cc(C)cc(NC(=O)Nc2ccc3ccccc3n2)c1", "hERG current change (%, negative = inhibition) at 10uM": 18.3}
{"smiles": "Cc1ccccc1OCC(=O)NNC(=O)Nc1ccc(Cl)cc1", "hERG current change (%, negative = inhibition) at 10uM": 0.251}
{"smiles": "CCOC(=O)CCNC(=O)CCc1nnc(CCCc2ccccc2)o1", "hERG current change (%, negative = inhibition) at 10uM": 14.3}
{"smiles": "COc1ccc(NC(=O)NNC(=O)c2ccc(Cl)cc2Cl)cc1OC", "hERG current change (%, negative = inhibition) at 10uM": 13}
{"smiles": "CCCc1c(C)nc2ccc(OC)cc2c1SCCC(=O)O", "hERG current change (%, negative = inhibition) at 10uM": 10.4}
{"smiles": "CCn1c(SCC(=O)Nc2cccc(NC(C)=O)c2)nnc1-c1ccco1", "hERG current change (%, negative = inhibition) at 10uM": 14.8}
{"smiles": "Cc1cc(C)n(CCC(=O)N/N=C/c2ccc(O)cc2)n1", "hERG current change (%, negative = inhibition) at 10uM": 14.4}
{"smiles": "Cc1cc(C)cc(NC(=O)CC2Oc3ccc(C)cc3NC2=O)c1", "note": "(stereo not shown)", "hERG current change (%, negative = inhibition) at 10uM": 14.3}
{"smiles": "Cc1ccc2c(c1)N(CCCC(=O)NCCCN1CCCCC1)C(=O)CO2", "hERG current change (%, negative = inhibition) at 10uM": -22.7}
{"smiles": "CCOc1ccc(CCNC(=O)c2ccc3c(=O)[nH]c4c(C(=O)NC(C)C)sc(=S)n4c3c2)cc1", "hERG current change (%, negative = inhibition) at 10uM": 10.2}
{"smiles": "Cc1nn(CCCC(=O)Nc2cccnc2)c(C)c1[N+](=O)[O-]", "hERG current change (%, negative = inhibition) at 10uM": 11.4}
{"smiles": "CCCCCn1c(N2CCCC2)nc2c1c(=O)n(C)c(=O)n2C", "hERG current change (%, negative = inhibition) at 10uM": -9.54}
{"smiles": "CN(C)c1ccc(/C=N/NC(=O)C2CC2c2ccccc2)cc1", "note": "(stereo not shown)", "hERG current change (%, negative = inhibition) at 10uM": -74.9}
{"smiles": "Cn1c(COc2ccccc2)nnc1SCCC(=O)Nc1ccccc1", "hERG current change (%, negative = inhibition) at 10uM": -18.9}
{"smiles": "CN1CCN(C(CNC(=O)C(=O)NC2CCCC2)c2ccc(F)cc2)CC1", "note": "(stereo not shown)", "hERG current change (%, negative = inhibition) at 10uM": -19.4}
{"smiles": "O=C(O)/C=C/c1cccc(NS(=O)(=O)c2ccccc2)c1", "hERG current change (%, negative = inhibition) at 10uM": -0.468}
{"smiles": "C=CCNc1nc(N)c(C(=C(C#N)C#N)c2ccc(Br)cc2)s1", "hERG current change (%, negative = inhibition) at 10uM": -9.15}
{"smiles": "CC(=O)c1c(C)n(CC(=O)NCc2ccc3c(c2)OCO3)c2ccccc12", "hERG current change (%, negative = inhibition) at 10uM": -6.29}
{"smiles": "CCOC(=O)Cc1nc2ccccc2o1", "hERG current change (%, negative = inhibition) at 10uM": 29.4}
{"smiles": "O=C(O)C(=O)O.O=S(=O)(c1ccc(Cl)cc1)N(CCCN1CCOCC1)Cc1cccs1", "hERG current change (%, negative = inhibition) at 10uM": -63.7}
{"smiles": "COC(=O)c1ccccc1NC(=O)CCC(=O)N1CC(C)Oc2ccc(C)cc21", "note": "(stereo not shown)", "hERG current change (%, negative = inhibition) at 10uM": -16.5}
{"smiles": "Cc1noc2ncnc(Oc3cc(Cl)ccc3Cl)c12", "hERG current change (%, negative = inhibition) at 10uM": 11.4}
{"smiles": "CCCN(C(=O)COC(=O)Cn1c(=O)oc2ccccc21)c1c(N)n(Cc2ccccc2)c(=O)[nH]c1=O", "hERG current change (%, negative = inhibition) at 10uM": 8.49}
{"smiles": "N#Cc1c(-c2cccc(F)c2)cc(-c2ccccc2)nc1Br", "hERG current change (%, negative = inhibition) at 10uM": 16}
{"smiles": "COc1cccc(NC(=O)COC(=O)c2c(-c3ccccc3)noc2C)c1", "hERG current change (%, negative = inhibition) at 10uM": 2.53}
{"smiles": "COc1ccc(N2CCN(C(=O)CCNS(=O)(=O)c3ccc(C)cc3)CC2)cc1", "hERG current change (%, negative = inhibition) at 10uM": -18}
{"smiles": "Cc1noc(C)c1COc1ccc(C(=O)OCC(N)=O)cc1", "hERG current change (%, negative = inhibition) at 10uM": 18}
{"smiles": "Cc1coc2c(C)c3oc(=O)c(CCC(=O)NCCC(=O)O)c(C)c3cc12", "hERG current change (%, negative = inhibition) at 10uM": 21.3}
{"smiles": "CCOC(=O)C(NC(=O)C(Cc1ccc(N(CCCl)CCCl)cc1)NC(C)=O)C(C)C", "note": "(stereo not shown)", "hERG current change (%, negative = inhibition) at 10uM": -3.97}
{"smiles": "CCOc1ccccc1NC(=O)CCn1cccc1", "hERG current change (%, negative = inhibition) at 10uM": -0.776}
{"smiles": "COc1cccc(-c2cc(C(=O)Nc3ccn(Cc4ccc(C)cc4)n3)no2)c1", "hERG current change (%, negative = inhibition) at 10uM": 17.3}
{"smiles": "CC1CC(C)CN(C(=O)c2nn(C)c3c2CSc2ccccc2-3)C1", "note": "(stereo not shown)", "hERG current change (%, negative = inhibition) at 10uM": -5.28}
{"smiles": "COc1ccc(NC(=O)CC(C(=O)O)N2CCCCC2)cc1", "note": "(stereo not shown)", "hERG current change (%, negative = inhibition) at 10uM": -2.4}
{"smiles": "CC(C)(C)OC(=O)c1c(N)n(Cc2ccco2)c2nc3ccccc3nc12", "hERG current change (%, negative = inhibition) at 10uM": -5.55}
{"smiles": "O=[N+]([O-])c1ccc(C(O)CN=Cc2ccc(O)cc2O)cc1", "note": "(stereo not shown)", "hERG current change (%, negative = inhibition) at 10uM": 6.19}
{"smiles": "Cc1ccc(S(=O)(=O)CCC(=O)Nc2ccc3nc(C)sc3c2)cc1", "hERG current change (%, negative = inhibition) at 10uM": 3.75}
{"smiles": "COc1ccc2nc(C)cc(Nc3ccc(N4CCOCC4)cc3)c2c1.Cl", "hERG current change (%, negative = inhibition) at 10uM": -60.9}
{"smiles": "COc1ccc(N2C(=O)CSC2c2ccccc2[N+](=O)[O-])cc1", "note": "(stereo not shown)", "hERG current change (%, negative = inhibition) at 10uM": -3.3}
{"smiles": "Cc1ncc([N+](=O)[O-])n1CCOC(=O)NC(Nc1ccc(F)cc1)C(Cl)(Cl)Cl", "note": "(stereo not shown)", "hERG current change (%, negative = inhibition) at 10uM": -54.6}
{"smiles": "O=C1N(c2ccccc2)C[C@@H]2C[C@@H](c3cccs3)N3CCC[C@@]123", "hERG current change (%, negative = inhibition) at 10uM": -11.5}
{"smiles": "COc1ccccc1C(c1c(O)nc(SC)[nH]c1=O)c1c(O)nc(SC)[nH]c1=O", "hERG current change (%, negative = inhibition) at 10uM": 19.2}
{"smiles": "O=C(NCCCn1ccnc1)C(=O)NCC1OCCN1S(=O)(=O)c1ccccc1", "note": "(stereo not shown)", "hERG current change (%, negative = inhibition) at 10uM": 10.6}
{"smiles": "COc1ccc(CN2C(=O)c3ccccc3C2=O)cc1C(=O)N(C)CC(=O)Nc1ccc(F)cc1", "hERG current change (%, negative = inhibition) at 10uM": -25.1}
{"smiles": "O=c1c2ccccc2nc2sc(Nc3cccc(Cl)c3)nn12", "hERG current change (%, negative = inhibition) at 10uM": 5.94}
{"smiles": "Cc1cc(=O)oc(C)c1C(=O)Nc1cccnc1Cl", "hERG current change (%, negative = inhibition) at 10uM": 12.8}
{"smiles": "C=CCn1c(SCC(=O)NNC(=O)Nc2ccc(C)cc2)nnc1-c1ccccc1", "hERG current change (%, negative = inhibition) at 10uM": 8.5}
